The sequences are guide strands of siRNAs; only the seed at positions 2 to 7 varies.
Key:
H4 = test: cell viability relative to siNT1 (ATP content); H4 human neuroglioma and GL261 mouse glioma; higher = less toxic; settings: siRNA concentration 10 nM; 96 h; human
Experimental: (§1)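 Arrayed screen of all 4096 6mer seeds. Each seed sits at guide-strand positions 2-7 of a neutral 19mer siRNA backbone (siNT1-based, passenger strand 2'-O-methyl modified at positions 1-2 to block RISC loading, 3' DNA overhangs). The guide strand is built here as U + seed + ACAUGUAAACCA. Cells were reverse transfected in triplicate in 384-well plates (H4 at 10 nM, GL261 at 25 nM) with Lipofectamine RNAiMAX. Viability was read as ATP content (CellTiter-Glo) 96 h after transfection and normalised to siNT1 (%).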

GL261 = test: as above; settings: siRNA concentration 25 nM; 96 h; mouse
Experimental: as §1
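Note: cells reverse transfected with siRNA duplexes via lipid reagent, ATP read by luminescence, triplicate wells, values scaled to mean viability with non-targeting control siNT1.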

| Sequence | cell viability (H4) [%] | cell viability (GL261) [%] |
| --- | --- | --- |
| UCCCUCAACAUGUAAACCA | 81.9 | 38.1 |
| UCCCUCCACAUGUAAACCA | 28.6 | 24.1 |
| UCCCUCGACAUGUAAACCA | 77.6 | 63.1 |
| UCCCUCUACAUGUAAACCA | 39.3 | 25.8 |
| UCCCUGAACAUGUAAACCA | 90.3 | 37.5 |
| UCCCUGCACAUGUAAACCA | 21.9 | 13.4 |
| UCCCUGGACAUGUAAACCA | 56.4 | 21.9 |
| UCCCUGUACAUGUAAACCA | 45.3 | 23.7 |
| UCCCUUAACAUGUAAACCA | 76.2 | 57.1 |
| UCCCUUCACAUGUAAACCA | 49 | 25.1 |
| UCCCUUGACAUGUAAACCA | 60.8 | 56.3 |
| UCCCUUUACAUGUAAACCA | 70.2 | 61 |
| UCCGAAAACAUGUAAACCA | 91.5 | 73.7 |
| UCCGAACACAUGUAAACCA | 72.5 | 52.7 |
| UCCGAAGACAUGUAAACCA | 71.3 | 62.5 |
| UCCGAAUACAUGUAAACCA | 90.1 | 37.1 |
| UCCGACAACAUGUAAACCA | 73.9 | 56.2 |
| UCCGACCACAUGUAAACCA | 58.1 | 12.7 |
| UCCGACGACAUGUAAACCA | 84.5 | 47.1 |

| Sequence | cell viability (H4) [%] | cell viability (GL261) [%] |
| --- | --- | --- |
| UCCGACUACAUGUAAACCA | 51.5 | 41.3 |
| UCCGAGAACAUGUAAACCA | 93.3 | 55.6 |
| UCCGAGCACAUGUAAACCA | 49.8 | 19.1 |
| UCCGAGGACAUGUAAACCA | 66 | 38.7 |
| UCCGAGUACAUGUAAACCA | 59.4 | 32.3 |
| UCCGAUAACAUGUAAACCA | 91.5 | 47.1 |
| UCCGAUCACAUGUAAACCA | 58.2 | 38.8 |
| UCCGAUGACAUGUAAACCA | 83.6 | 42.7 |
| UCCGAUUACAUGUAAACCA | 87.1 | 43.5 |
| UCCGCAAACAUGUAAACCA | 86.7 | 46.7 |
| UCCGCACACAUGUAAACCA | 67.3 | 22.2 |
| UCCGCAGACAUGUAAACCA | 86.9 | 42.4 |
| UCCGCAUACAUGUAAACCA | 64.3 | 45.5 |
| UCCGCCAACAUGUAAACCA | 65.9 | 40.4 |
| UCCGCCCACAUGUAAACCA | 61.6 | 16 |
| UCCGCCGACAUGUAAACCA | 85.5 | 48.5 |
| UCCGCCUACAUGUAAACCA | 83 | 19.1 |
| UCCGCGAACAUGUAAACCA | 83.3 | 81.6 |
| UCCGCGCACAUGUAAACCA | 59.9 | 25.9 |

| Sequence | cell viability (H4) [%] | cell viability (GL261) [%] |
| --- | --- | --- |
| UCCGCGGACAUGUAAACCA | 56.2 | 32.9 |
| UCCGCGUACAUGUAAACCA | 76.9 | 71.1 |
| UCCGCUAACAUGUAAACCA | 70.8 | 75.2 |
| UCCGCUCACAUGUAAACCA | 66.7 | 15.8 |
| UCCGCUGACAUGUAAACCA | 74.4 | 61.4 |
| UCCGCUUACAUGUAAACCA | 89 | 41.5 |
| UCCGGAAACAUGUAAACCA | 72.9 | 57 |
| UCCGGACACAUGUAAACCA | 36.7 | 7.79 |
| UCCGGAGACAUGUAAACCA | 55.9 | 40.1 |
| UCCGGAUACAUGUAAACCA | 52.1 | 38.6 |
| UCCGGCAACAUGUAAACCA | 56.1 | 36.2 |
| UCCGGCCACAUGUAAACCA | 25 | 11.5 |
| UCCGGCGACAUGUAAACCA | 71.2 | 15.5 |
| UCCGGCUACAUGUAAACCA | 27 | 17.7 |
| UCCGGGAACAUGUAAACCA | 61.5 | 39.7 |
| UCCGGGCACAUGUAAACCA | 14.2 | 14.6 |
| UCCGGGGACAUGUAAACCA | 26.6 | 19.7 |
| UCCGGGUACAUGUAAACCA | 35.6 | 16 |
